# From the GPR68 mutational scans of Howard et al. (2025)
# Scores with a large standard error are left out. The source holds two more conditions with little spread; they are left out. Names with del lack the residues named; names with ins carry added residues between the positions named. For some assays here: The concentration of ogerin is not given here.
# B1: GPR68, Q15743 (parent)
# chain: MGNITADNSSMSCTIDHTIHQTLAPVVYVTVLVVGFPANCLSLYFGYLQIKARNELGVYLCNLTVADLFYICSLPFWLQYVLQHDNWSHGDLSCQVCGILLYENIYISVGFLCCISVDRYLAVAHPFRFHQFRTLKAAVGVSVVIWAKELLTSIYFLMHEEVIEDENQHRVCFEHYPIQAWQRAINYYRFLVGFLFPICLLLASYQGILRAVRRSHGTQKSRKDQIQRLVLSTVVIFLACFLPYHVLLLVRSVWEASCDFAKGVFNAYHFSLLLTSFNCVADPVLYCFVSETTHRDLARLRGACLAFLTCSRTGRAREAYPLGAPEASGKSGAQGEEPELLTKLHPAFQTPNSPGSGGFPTGRLA
# Legend:
# [1] = variants of: B1; assay: cAMP reporter score (Enrich2 score, wild type = 0); higher = more signal; HEK293T, FACS bins
# [2] = variants of: B1; assay: surface expression score (Enrich2 score, wild type = 0); higher = more signal; HEK293T, FACS bins
Variant,cAMP reporter score ([1]; pH 5.5),cAMP reporter score ([1]; pH 6),surface expression score [2],"cAMP reporter score ([1]; pH 6.5, modulator: ogerin)","cAMP reporter score ([1]; pH 6, modulator: ogerin)"
I198_C199insGSG,-0.748,-0.779,-1.89,–,–
I198del,-1.72,-1.53,-2.25,-0.909,–
C199_L200insGS,-1.7,-0.372,-1.88,-1.5,-1.8
L200_L201insG,-2,–,-4.29,–,-0.121
L200_L201insGS,-1.57,-1.56,–,-1.3,–
L201_A203del,-0.539,-0.993,-2.93,-0.748,-2.55
L202_A203insG,-0.605,-1.01,-4.22,-0.876,-1.98
A203_S204insG,-0.973,–,-2.77,-0.845,-1.89
Q206_G207insGSG,-1.91,-1.54,-2.28,-0.947,-2.16
Q206_I208del,-1.55,-1.45,-2.48,-1.27,-0.933
Q206del,-1.21,-1.14,-2.21,-1.19,-1.5
G207_I208insGSG,-1.99,-0.166,-2.38,-1.32,-1.95
G207_L209del,-2.38,–,-3.35,-2.85,–
I208A,-0.527,-1.05,-1.32,-0.744,-1.08
I208C,-1.02,-1.43,-0.871,-1.44,-1.1
I208D,-0.829,-0.966,-3.07,–,-2.05
I208E,-1.39,-0.651,–,–,–
I208F,-2,-0.518,-1.27,-0.334,-0.914
I208G,-1.44,–,-2.41,-1.16,–
I208H,-2.17,–,–,-0.442,-1.22
I208K,-1.34,-0.146,-3.3,-0.891,-0.79
I208L,-1.1,0.083,-1.67,-0.592,-0.859
I208M,0.063,0.262,-0.838,-0.555,0.191
I208P,-1.99,-1.12,–,-1.48,-0.949
I208Q,-1.08,-0.976,-2.05,-1.13,-1.63
I208R,-1.64,-1.11,-2.18,-1.09,-2.53

Variant,cAMP reporter score ([1]; pH 5.5),cAMP reporter score ([1]; pH 6),surface expression score [2],"cAMP reporter score ([1]; pH 6.5, modulator: ogerin)","cAMP reporter score ([1]; pH 6, modulator: ogerin)"
I208S,-0.526,-1.37,-1,-0.391,-0.971
I208T,-0.25,-0.563,-0.38,–,-0.291
I208W,-1.66,-1.33,-2.29,-0.747,-1.31
I208Y,-0.484,-1.04,-0.717,-0.539,–
I208_L209insGS,-0.835,-1.22,-1.96,-1.09,-1.1
I208_L209insGSG,-2.06,-1.1,–,-1.26,-1
I208_R210del,-1.21,-0.644,-1.73,-0.717,-1.31
R210_A211insGS,-0.206,-0.847,-1.01,-0.824,-2.3
A211_R213del,-1.75,-0.944,-1.05,-1.44,-1.88
R213_R214insGSG,-0.93,-1.42,1.08,-1.39,-1.7
S215del,-1.73,-0.827,0.435,-0.751,-0.293
H216_G217insGS,-1.37,-0.932,0.69,-1.13,-1.41
H216del,-0.666,-0.1,0.091,-2.02,-0.803
G217A,-0.362,-0.669,0.144,-0.353,-1.71
G217C,-0.666,-1.08,-0.399,-1.35,-0.868
G217D,-1.48,0.638,0.469,-1.49,-1.61
G217E,-1.18,-1.27,0.249,-0.71,-1.22
G217F,0.947,-1.87,–,-0.445,0.918
G217H,-0.978,-0.264,-0.454,-1.32,-0.335
G217I,-0.75,-0.633,-0.114,-0.549,-1.97
G217K,-0.708,-1.11,0.217,-0.819,-1.22
G217L,-0.961,-0.497,0.159,-1.37,-0.709
G217M,-1.01,-0.213,-0.181,-0.703,-1.16
G217N,-0.616,-0.18,0.572,-0.198,-1.47
G217P,-0.353,-0.057,-0.362,-0.167,-0.422
G217Q,-1.22,-0.632,-0.535,-1.23,-1.96

Variant,cAMP reporter score ([1]; pH 5.5),cAMP reporter score ([1]; pH 6),surface expression score [2],"cAMP reporter score ([1]; pH 6.5, modulator: ogerin)","cAMP reporter score ([1]; pH 6, modulator: ogerin)"
G217R,-1.2,–,0.587,-0.772,-1.16
G217S,0.991,-1.09,0.598,-0.796,0.297
G217T,-1.08,-1.98,–,-0.442,–
G217V,-0.145,0.405,0.493,-1.09,-0.14
G217W,0.594,-0.695,-0.094,-0.7,-0.097
G217Y,-0.29,-0.471,-0.992,-0.657,-0.928
T218A,0.312,-0.325,0.506,-0.479,0.372
T218C,0.376,–,–,-0.316,1.36
T218D,-0.337,-0.913,2.16,-0.442,-0.561
T218E,0.664,-0.769,0.954,-0.266,0.686
T218F,0.226,-0.565,0.043,-0.131,0.637
T218G,-1.46,-1.41,0.135,-1.91,-1.49
T218H,-0.309,-0.772,-0.643,–,-1.43
T218I,-0.207,1.03,-0.066,0.746,-0.29
T218K,-1.34,-1.22,-0.61,-1.01,-2.06
T218L,-0.286,2.01,–,2.39,0.468
T218N,-0.737,-0.971,0.993,-1.22,–
T218P,-0.628,-1.15,0.322,-1.25,0.086
T218Q,0.107,-0.176,1.14,-0.893,0.283
T218S,-0.274,-1.08,-0.029,-1.08,-0.641
T218V,-0.398,–,–,–,–
T218W,-0.212,-0.933,0.436,-1.33,-0.839
T218Y,-0.314,-0.996,-0.442,-0.425,-0.371
Q219_K220insGS,-1.51,-1.24,0.863,-0.882,-1.5
K220_S221del,-1.33,-0.74,-0.732,-0.618,-1.6
S221A,1.03,0.524,1.12,0.823,1.23

Variant,cAMP reporter score ([1]; pH 5.5),cAMP reporter score ([1]; pH 6),surface expression score [2],"cAMP reporter score ([1]; pH 6.5, modulator: ogerin)","cAMP reporter score ([1]; pH 6, modulator: ogerin)"
S221C,0.546,0.117,0.803,0.981,0.52
S221D,0.659,0.131,0.977,0.417,0.508
S221E,0.055,–,1.03,1.61,0.888
S221F,0.068,-0.277,0.197,-0.563,-0.023
S221G,1.02,-0.128,1.18,0.871,0.759
S221H,-0.494,0.758,-0.734,-1.34,0.48
S221I,-0.048,-0.978,0.006,-0.493,0.033
S221K,0.127,0.591,0.14,0.769,0.642
S221L,-0.552,-1.38,0.231,-0.918,-0.716
S221M,-0.016,-1.32,0.133,-1.91,-0.268
S221N,0.488,0.346,0.885,-0.114,-0.028
S221P,0.561,0.343,1.05,-0.356,0.104
S221Q,0.902,–,0.423,–,0.454
S221R,-0.399,-0.204,-0.281,–,-0.645
S221T,1.18,0.738,1.47,0.494,1.37
S221V,-0.025,0.055,0.241,-0.863,0.332
S221W,1.48,-0.178,-0.195,0.848,0.382
S221Y,0.062,0.063,-0.613,-0.184,-0.053
S221_R222insGSG,-1.13,-1.19,0.218,-1.52,–
R222A,0.854,–,0.374,2.39,1.61
R222D,-0.133,–,-0.016,2.58,0.395
R222E,0.995,–,1.41,–,2.33
R222F,2.39,-0.431,-0.428,–,1.04
R222G,-0.834,0.412,-0.209,-1.24,-0.493
R222H,0.223,1.7,0.966,3.2,0.948
R222I,1.4,2.61,–,–,0.49

Variant,cAMP reporter score ([1]; pH 5.5),cAMP reporter score ([1]; pH 6),surface expression score [2],"cAMP reporter score ([1]; pH 6.5, modulator: ogerin)","cAMP reporter score ([1]; pH 6, modulator: ogerin)"
R222L,0.702,1.08,-0.257,1.59,1.32
R222M,1.36,2.35,0.445,0.64,1.54
R222N,0.83,-0.27,1.02,0.143,0.855
R222P,-1.39,-0.088,0.144,-0.686,-1.72
R222Q,0.738,3.47,1.4,4.01,1.64
R222S,0.929,0.082,1.43,1.96,1.78
R222T,0.341,–,-0.576,2.82,0.748
R222W,-0.641,-0.844,-1.45,-1.12,-0.875
R222Y,0.947,-0.541,-0.288,0.665,1.3
R222_K223insGS,-1.33,-0.78,0.795,-0.948,-1.5
R222_K223insGSG,-1.47,-1.11,0.635,-1.75,-1.7
R222del,1.03,-0.769,0.984,-0.531,0.822
K223_D224insG,-1.46,-1.7,-0.417,-1.12,-1.98
D224_Q225insGSG,-1.64,-1.21,0.296,-1.5,-1.21
Q225_I226insGSG,-1.5,-1.64,-0.857,-1.06,-2.34
I226A,-1.85,-0.781,1.67,-0.56,-0.747
I226C,-0.208,-1.76,0.692,-0.608,-0.489
I226D,-1.6,-1.04,-0.582,-1.17,–
I226E,-1.6,-1.7,-0.626,-1.21,-0.79
I226F,-1.39,-1.14,-0.573,-1.04,-1.86
I226G,-0.849,-0.141,0.277,-1.55,–
I226K,-0.978,–,-1.34,-0.97,–
I226L,0.543,0.572,-0.116,0.492,-0.228
I226M,-0.884,-1.16,0.141,-1.57,-1.19
I226N,-1.47,-0.194,0.67,-0.883,-1.65
